Reference: PubChem BioAssay AID504845 (National Center for Advancing Translational Sciences (NCATS), 2011)
About 150 (0.038%) of roughly 390,000 compounds were called active. Inconclusive results, whose numbers are uncertain, are shown with a selection of clear calls. The call rests on the fitted dose curve; in most records, active means well fitted inhibition curve with a large enough effect; inconclusive means small, poorly fitted or top-dose-only effect; inactive means no such curve, though single readings can be large or run the other way. Potencies beside an inconclusive call are fits to weak or partial responses and may not hold up.

What follows are molecules tested against Regulator of G-protein signaling 4 (Homo sapiens) (UniProt P49798) (assay: Inhibitors of Regulator of G Protein Signaling (RGS) 4: qHTS). Conditions: Transcreener GDP fluorescence polarization, RGS4-accelerated GTP hydrolysis; series mostly up to 114 µM.
Method in brief: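 MLSMR compounds (23 nl, pin-transferred) preincubated 10 min at room temperature with a 500nM (2x) first reagent, then RGS4 at 900nM (2x) plus Transcreener GDP mix added; fluorescence polarization (620/688 nm) read before and after 90 min at 30 °C.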
Further: nearly all actives have a fitted effect of over 75% in size.
On the % scale 0 is the no-effect control and ±100 the full control effect; potency means the concentration at half of the fitted maximal effect; tags describe the fitted curve by direction and shape.

UniProt P49798, sequence (P49798 whole entry, looked up): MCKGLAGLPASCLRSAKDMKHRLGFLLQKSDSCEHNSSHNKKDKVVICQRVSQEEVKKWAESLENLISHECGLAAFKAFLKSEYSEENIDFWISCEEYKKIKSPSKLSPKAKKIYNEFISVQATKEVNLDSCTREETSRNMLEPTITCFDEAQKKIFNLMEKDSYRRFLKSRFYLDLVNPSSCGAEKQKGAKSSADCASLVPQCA

SMILES	Potency	activity change, negative = inhibition
CCc1cccc(CC)c1NC(=O)COC(=O)CC1c2ccccc2CCN1S(=O)(=O)c1ccc(F)cc1 (configuration not stated)	inactive	
O=C(O)c1cc(N/N=C/c2ccc(-c3ccccc3)cc2)ccc1Cl	inconclusive: 56.2 µM [inhibitor, partial curve, poor fit]	
S=C(c1ccc(-c2ccc(Cl)cc2Cl)o1)N1CCCCC1	inconclusive: 89.1 µM [inhibitor, single point]	
CCOC(=O)Cc1csc(NC(=O)Nc2cccc(Cl)c2)n1	inactive	
CCCCn1nnc(NC(=S)NC(=O)c2ccc(OCC)c([N+](=O)[O-])c2)n1	inconclusive: 56.2 µM [inhibitor, partial curve, poor fit]	
O=C(NC1CCCCC1)C(c1ccccn1)N(C(=O)c1csnn1)C1CC1 (configuration not stated)	inconclusive: 89.1 µM [inhibitor, single point]	
CCOc1cc(CNCCSc2nnnn2C)cc(Br)c1OCc1ccccc1	inactive	
COCCNC(=O)c1ccccc1N(Cc1ccccc1)S(=O)(=O)c1ccc(C)cc1	inconclusive: 79.4 µM [inhibitor, partial curve, poor fit]	
NC(=O)N/N=C1\c2ccccc2-c2c(C(N)=O)cccc21	inactive	
CCCCNC(=O)N1CCc2ccccc2C1	inconclusive: 89.1 µM [inhibitor, single point]	
CCOc1cc(/C=C2\COc3ccccc3C2=O)cc(Br)c1OCC(=O)N(C)C	inconclusive: 25.1 µM [inhibitor, full curve, poor fit]	
CCOC(=O)c1c(-c2ccccc2)csc1NC(=O)c1cc(-c2ccc(Br)cc2)on1	inconclusive: 50.1 µM [inhibitor, partial curve, poor fit]	
O=C(O)c1ccc(COc2ccccc2/C=C2\NC(=O)N(Cc3ccccc3)C2=O)cc1	inconclusive: 17.8 µM [inhibitor, full curve, poor fit]	
O=C(c1ccc(NS(=O)(=O)c2cccs2)cc1)N1CCCCC1	inconclusive: 89.1 µM [inhibitor, partial curve, poor fit]	
C=CCN1CC(C)/C(=N\O)CC1C (configuration not stated)	inconclusive: 100 µM [inhibitor, single point]	
O=[N+]([O-])c1ccc(S(=O)(=O)Nc2ccc(-c3ccc(N4CCOCC4)nn3)cc2)cc1	inconclusive: 100 µM [inhibitor, partial curve, poor fit]	
CCc1ccc(NC(=O)C(C)n2nnc3sc(-c4ccccc4)cc3c2=O)cc1 (configuration not stated)	inconclusive: 56.2 µM [inhibitor, partial curve, poor fit]	
Clc1ccc(C2Nc3cccc4cccc(c34)N2)cc1	inconclusive: 50.1 µM [inhibitor, partial curve, poor fit]	
Cc1c(Br)ccc(NC(=O)Cn2nc(-c3cccs3)ccc2=O)c1C	inconclusive: 31.6 µM [inhibitor, full curve, poor fit]	
CC1CCc2c(sc3nc(C4CC4)nc(N4CCN(C(=O)c5ccco5)CC4)c23)C1 (configuration not stated)	inconclusive: 79.4 µM [inhibitor, single point]	
CCn1cnc2cc(NCc3ccc(Br)cc3)ccc21	inactive	

SMILES	Potency	activity change, negative = inhibition
COc1ccc(C(=O)N2CCCC(CCC(=O)NCc3ccc(F)c(F)c3)C2)o1 (configuration not stated)	inconclusive: 50.1 µM [inhibitor, partial curve, poor fit]	
Cc1cccc(Nc2nnc(-c3ccc(C(=O)N4C[C@H]5C[C@H](C4)c4cccc(=O)n4C5)cc3)c3ccccc23)c1	inconclusive: 79.4 µM [inhibitor, single point]	
CNc1nc(N(C)C)nc(N(C)C)n1	inconclusive: 79.4 µM [inhibitor, single point]	
CCOC(=O)CCn1nc(-c2ccccc2)cc1N	inconclusive: 89.1 µM [inhibitor, single point]	
COc1ccc(S(=O)(=O)Nc2cccc3cccnc23)cc1	inactive	
Cn1ccc2cc3c(cc21)CCN3C(=O)Nc1cccnc1	inconclusive: 37.7 µM [inhibitor, single point]	
COc1cccc(/C=C2\Oc3cc(OCC(=O)N4Cc5ccccc5C[C@H]4C(=O)O)ccc3C2=O)c1	inconclusive: 79.4 µM [inhibitor, partial curve, poor fit]	
CN(c1ccccc1)c1ccc(/C=N/NC(=O)CC#N)cc1	inactive	
Nc1ccc2nc(-c3cccc(-c4nc5ccc(N)cc5[nH]4)n3)[nH]c2c1	inconclusive: 44.7 µM [inhibitor, partial curve, poor fit]	
CCS(=O)(=O)c1ncc(Cl)c(C(=O)Nc2ccc(C)cc2)n1	inconclusive: 89.1 µM [inhibitor, single point]	
CCN(C(=O)c1coc(=O)c(Br)c1)c1ccc2c(c1)OCO2	inconclusive: 50.1 µM [inhibitor, partial curve, poor fit]	
Cc1ccccc1CSc1nc2n(n1)C(c1cccs1)C1=C(CCCC1=O)N2 (configuration not stated)		inactive: 5.48% [at 11.4 µM]
O=[N+]([O-])c1c(NCCO)cc(Sc2nc3ccccc3s2)c2nonc12	inconclusive: 17.8 µM [inhibitor, full curve, poor fit]	
COc1ccc(COc2ccsc2C(=O)Nc2ccc(Cl)cc2)cc1	inactive	
COc1ccc(OCCOCCN2CCc3ccccc3C2)cc1	inactive	
COC(=O)CCC(=O)OC1(C)C(=O)C2=COC(c3ccc(OC)cc3)=CC2=C(Br)C1=O (configuration not stated)	inactive	
Cc1ccc(-c2nn(-c3ccccc3)cc2C(=O)NCCCN2CCCC2=O)cc1	inconclusive: 89.1 µM [inhibitor, partial curve, poor fit]	
Cc1ccc(-n2c(C)cc(/C=N/NC(=O)CC3(C)OCCO3)c2C)c(C)c1	inconclusive: 89.1 µM [inhibitor, single point]	
COCCn1nnnc1C(c1cc2cc(C)ccc2[nH]c1=O)N1CCCCCC1 (configuration not stated)	inactive	
Cc1cc(C)n(C(=O)c2ccc(S(=O)(=O)NCC3CCCO3)cc2)n1 (configuration not stated)	inconclusive: 89.1 µM [inhibitor, single point]	
O=C(O)CC1S/C(=N/N=C/c2ccc(-c3ccccc3[N+](=O)[O-])o2)NC1=O (configuration not stated)	inconclusive: 89.1 µM [inhibitor, single point]	
